In PubChem BioAssay AID504339 (National Center for Advancing Translational Sciences (NCATS), 2011):
The campaign covered roughly 390,000 compounds. About 17,000 (4.4%) were called active. The inconclusive results got no clear call from the source; some entries with a clear call stand among them for comparison. Calls come from the whole dose curve; as a rule, active = well fitted inhibition curve with a large enough effect; inconclusive = small, poorly fitted or top-dose-only effect; inactive = no such curve, though single readings can be large or run the other way. Potencies of inconclusive entries are doubtful fits and often do not repeat.

Each compound was assayed against Lysine-specific demethylase 4A (Homo sapiens) (UniProt O75164) (assay: qHTS Assay for Inhibitors of JMJD2A-Tudor Domain). Conditions: AlphaScreen JMJD2A-Tudor / H3K4me3 peptide binding; activity change, negative = inhibition: at 114 µM (top of the series).
Chain of UniProt O75164 (O75164 whole entry, looked up, the tested form may be a part): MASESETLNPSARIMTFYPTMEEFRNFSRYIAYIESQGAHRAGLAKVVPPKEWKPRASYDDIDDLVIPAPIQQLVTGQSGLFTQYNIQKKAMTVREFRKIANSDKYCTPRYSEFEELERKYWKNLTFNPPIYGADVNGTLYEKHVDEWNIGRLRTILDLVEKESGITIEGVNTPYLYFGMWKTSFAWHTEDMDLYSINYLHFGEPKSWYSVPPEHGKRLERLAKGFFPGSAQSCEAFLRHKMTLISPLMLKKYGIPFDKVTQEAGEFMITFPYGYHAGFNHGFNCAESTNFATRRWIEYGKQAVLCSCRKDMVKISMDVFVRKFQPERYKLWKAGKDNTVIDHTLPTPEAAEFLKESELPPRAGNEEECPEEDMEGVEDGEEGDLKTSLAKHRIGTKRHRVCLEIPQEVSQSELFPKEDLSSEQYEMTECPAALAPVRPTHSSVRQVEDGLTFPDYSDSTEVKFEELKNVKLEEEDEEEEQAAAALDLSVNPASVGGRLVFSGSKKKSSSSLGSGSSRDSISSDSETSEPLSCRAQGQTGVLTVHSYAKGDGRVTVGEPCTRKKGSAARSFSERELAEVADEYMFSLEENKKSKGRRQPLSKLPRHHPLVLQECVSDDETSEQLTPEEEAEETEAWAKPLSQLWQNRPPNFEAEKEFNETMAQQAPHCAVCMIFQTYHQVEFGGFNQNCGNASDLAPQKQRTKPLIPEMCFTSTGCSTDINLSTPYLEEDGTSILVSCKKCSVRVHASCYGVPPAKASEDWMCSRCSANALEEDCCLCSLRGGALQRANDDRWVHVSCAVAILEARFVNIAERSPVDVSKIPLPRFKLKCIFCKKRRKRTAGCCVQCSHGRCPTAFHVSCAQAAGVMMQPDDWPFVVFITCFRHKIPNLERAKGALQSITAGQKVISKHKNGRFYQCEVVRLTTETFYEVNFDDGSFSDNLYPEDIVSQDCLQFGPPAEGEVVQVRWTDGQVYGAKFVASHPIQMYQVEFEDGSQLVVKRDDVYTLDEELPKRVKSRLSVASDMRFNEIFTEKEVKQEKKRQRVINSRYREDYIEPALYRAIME
% is set by controls: 0 for no effect and ±100 for the full control effect; potency is the fitted concentration of half-maximal effect; tags give direction and shape of the fitted curve.
Note: nearly all actives have a fitted effect of over 50% in size.

Activity change, negative = inhibition, inactive:
COCCN(C(=O)Cn1nnc2ccccc21)C(C(=O)NC1CCCCC1)c1ccc(OC)cc1OC (stereo not given) -27.7%
COC(=O)c1cccc(NC(=O)CCc2c(C)noc2C)c1 -12.4%
O=C(O)CSc1nnc(Nc2ccccc2)n1-c1ccccc1 6.77% [at 57.1 µM]
COc1ccc(C)cc1NCc1cc(=O)oc2cc(-c3ccccc3)c(O)cc12 -12.7%
CCCN1CCC(=O)N(C(CSc2ccc(Br)cc2)c2ccccc2)CC1 (stereo not given) -32.4%
O=C(Cc1nn[nH]n1)NCc1ccccc1Cl -7.47%
Cc1ccc(C(=O)N2CCc3ccccc32)o1 -3.47%
Cn1nccc1C(=O)Nc1cc(Cl)ccc1Cl -11.8%
CC(=O)NCCc1ccc(S(=O)(=O)Nc2ccc3c(c2)OCCO3)cc1 -15.4%
Cc1cc(C)nc(S/C=C/C(=O)c2ccccc2)n1 -6.35%
C=CCn1c(SCCC)nc2ccccc2c1=O 57.7% [at 57.1 µM]
C=CCNc1oc(/C=C/c2ccccc2)nc1C#N -11.5%
CCCc1cc(=O)oc2cc(C)cc(OCC(=O)NCc3ccncc3)c12 -2.76%
O=C1C=C(c2ccc(Cl)c(C(F)(F)F)c2)C[C@@H](c2ccc(Cl)cc2)C1 -9.35%
COCCn1cnc2c1c(=O)n(Cc1cc(C(C)=O)ccc1OC)c(=O)n2Cc1ccccc1 -5.71%
Cc1cccc(NC(=O)Cn2nc(N3CCN(c4ccccc4)CC3)ccc2=O)c1C -15.9%
Cc1ccc(NC(=O)CSc2n[nH]c(-c3ccncc3)n2)cc1 -9.02%
COc1cc(C(=O)Nc2ccc(-c3cc(C(F)(F)F)nn3-c3ccccc3)cc2)cc(OC)c1OC -23.1%
COc1ccccc1N=c1sc2ccccc2n1C 15.3%
CCOC(=O)NC(O)C(=O)c1cccs1 (stereo not given) 3.42%
COCCN1CCn2c(nc3cc([N+](=O)[O-])ccc32)C1 -2.94% [at 11.4 µM]
O=C(Nc1cnc2ccccc2c1)N1CCCCC1 -9.03%
CN(C)CCCNc1nc(-c2ccccc2)nc2ccccc12 -15.9%

Potency, active:
Cc1cc(N2O[C@H]3C=C[C@@H]2C3)no1 79.4 µM
CC(=O)N1CCN(c2ccc(NCc3cccc4ccccc34)cc2)CC1 22.4 µM
CCN(Cc1ccccc1)C(=O)C1CCN(CC2CC=CCC2)CC1 (stereo not given) 3.16 µM
N#C/C(=C\c1cccs1)C(=O)Nc1nccs1 20 µM
CC(C)NC(=O)c1onc(CSc2ccc(F)c(F)c2)c1C(=O)O 79.4 µM
O=[N+]([O-])c1ccc(O)c2ncccc12 22.4 µM
Cc1ccc(NC(=S)N(CCCN2CCCC2)Cc2cccn2Cc2ccc(Cl)cc2)cc1 50.1 µM
Cc1ccc(-c2cc(-c3ccc(C)o3)nc(N)c2C#N)cc1 31.6 µM
O=[N+]([O-])c1cccc(CN2CCN(c3cccc4[nH]ccc34)CC2)c1 56.2 µM
C#CCOCCOCCOCCNc1nc(N2CCN(C(=O)C([C@@H](C)CC)n3cc(C(N)CC(C)C)nn3)CC2)nc(N2CCN(C(=O)[C@H](CCC(=O)O)n3cc(C(N)Cc4ccc(O)cc4)nn3)CC2)n1 (stereo not given in full) 79.4 µM
O=C(O)CN1C(=O)/C(=C\c2cc(Br)ccc2OCc2ccccc2F)SC1=S 50.1 µM
O=C(c1ccc(S(=O)(=O)N2CCCCCC2)cc1)N1CCN(c2ccccc2)CC1 79.4 µM
CC(=O)c1ccc(N2CCN(CC(O)COC(c3ccccc3)c3ccccc3)CC2)cc1 (stereo not given) 10 µM
CCOc1cc(CN2CCN(C(=O)c3ccco3)CC2)ccc1OC 5.62 µM

Potency, inconclusive:
CC(=O)c1c(C(C)=O)c(C)n(C(c2ccccc2)c2ccccc2)c1C 39.8 µM [inhibitor, partial curve]
O=C(N/N=C/C(Br)=C/c1ccccc1)c1n[nH]c2c1CCC2 56.2 µM [inhibitor, partial curve]
N#Cc1nc(COc2ccccc2Cl)oc1NCc1cccnc1 35.5 µM [inhibitor, partial curve]
COc1cccc(NS(=O)(=O)c2ccc3[nH]cc(C(=O)NC4CCCCC4)c(=O)c3c2)c1 35.5 µM [inhibitor, partial curve]
COc1ccc(NC(=O)c2cc(-c3ccc(C)o3)nc3ccccc23)cc1 79.4 µM [inhibitor, single point]
O=S(=O)(NCc1ccccc1)c1ccc2[nH]c3c(c2c1)CCCCC3 35.5 µM [inhibitor, partial curve]
Cc1cc(-c2nn(-c3ccccc3F)cc2CN2CCN(c3ccccn3)CC2)c(C)s1 50.1 µM [inhibitor, partial curve]
COc1cc(OC)c2cc(C(=O)N[C@H](C(=O)N3CCC[C@H]3C(=O)O)C(C)C)n(C)c2c1 89.1 µM [inhibitor, single point]
O=C(C1CCN(CC2CC=CCC2)CC1)N(CCc1ccccc1)Cc1ccccc1 (stereo not given) 3.16 µM [inhibitor, single point]
COC(=O)Nc1nc2ccc(-c3n[nH]c(=O)c4ccccc34)cc2[nH]1 39.8 µM [inhibitor, single point]
Cc1cc(C)cc(NC(=O)CSc2ccc(-c3ccccn3)nn2)c1 3.98 µM [inhibitor, full curve]
CCCCn1nnnc1NCc1cccnc1 7.08 µM [inhibitor, single point]
Cc1ccc(-n2cccc2/C=N/n2cnnc2)cc1Cl 89.1 µM [inhibitor, single point]
CN1CCN(c2ccc3c(c2)C2CC3CCN2C(=O)OCc2ccccc2)CC1 (stereo not given) 15.8 µM [inhibitor, partial curve]
COc1ccc(CNC(=O)[C@H](C)NC(=O)C2CC(=O)N(c3ccc(OC)cc3)C2)cc1 (stereo not given in full) 20 µM [inhibitor, full curve]
COc1ccc(OC)c(-c2cc(C3CCN(c4cc(Cl)nc(N)n4)CC3)[nH]n2)c1 25.1 µM [inhibitor, partial curve]
Nc1c(Br)cc2c([nH]c(=O)c3ccccc32)c1Br 63.1 µM [inhibitor, partial curve, poor fit]
Cc1ccccc1C(=O)N1CCN(c2ccc([N+](=O)[O-])c(NCc3cccnc3)c2)CC1 56.2 µM [inhibitor, partial curve]
Nc1ccc(Nc2ccccc2)c(S(=O)(=O)O)c1 31.6 µM [inhibitor, partial curve]
CCOC(=O)c1c(CSC(=N)N)n(-c2ccc(C)cc2)c2cc(Br)c(OC(C)=O)cc12 56.2 µM [inhibitor, partial curve]
CN1CCc2nc(SCC(=O)Nc3ccc(OC(F)(F)F)cc3)c(C#N)c(-c3cccs3)c2C1 79.4 µM [inhibitor, partial curve]
Cc1ccc([N+](=O)[O-])cc1NC(=S)NC(=O)c1cccs1 39.8 µM [inhibitor, single point]
O=C(Nc1ccc2oc(-c3ccncc3)nc2c1)c1ccc2c(c1)OCO2 63.1 µM [inhibitor, partial curve, poor fit]
O=C(CN(Cc1ccccc1)C(=O)CNS(=O)(=O)c1ccc(F)cc1)NCc1ccco1 12.6 µM [inhibitor, partial curve]
Cc1ccc(NC(=O)NCC2CCN(Cc3cccc(Cl)c3)CC2)c(Cl)c1 56.2 µM [inhibitor, partial curve]
Cc1ccc(C2=NCCn3nc4cc(C(F)(F)F)ccc4c32)cc1 3.16 µM [inhibitor, full curve]
COc1cccc(CNC(=O)CCC(=O)N2CC3CCCN3c3ccccc32)c1 (stereo not given) 39.8 µM [inhibitor, partial curve]
Cc1ccc(C(C)C)c(OCC(=O)Nc2ccc3c(c2)nc(CN2CCCC2)n3C)c1 89.1 µM [inhibitor, partial curve]
CC(=O)Nc1ccc2nc3ccccc3nc2c1 22.4 µM [inhibitor, full curve]
CCN1CCN(Cc2ccc(NC(=O)c3ccc(C)c(NC(=O)c4cncc(-c5cccs5)c4)c3)cc2C(F)(F)F)CC1 50.1 µM [inhibitor, partial curve]
COc1cc(C)nc(N2CCC(C(=O)NCC3CCCO3)CC2)n1 (stereo not given) 31.6 µM [inhibitor, single point]
CC(=O)c1cccc(NC(=S)NC(=O)c2ccc(Cl)cc2)c1 25.1 µM [inhibitor, partial curve]
COCCNC(=O)C(=O)Nc1c2c(nn1-c1ccccc1)CS(=O)(=O)C2 25.1 µM [inhibitor, full curve, poor fit]
Cc1cc(C)n(-c2nc3nonc3nc2-n2nc(C)cc2C)n1 79.4 µM [inhibitor, partial curve]
Cc1cc(O)c(C(=O)c2cnc3c(c2)COc2ccccc2-3)cc1Cl 20 µM [inhibitor, full curve]
CCC1(C)Cc2ccccc2/C(=C/C(=O)N2CCCCC2)N1 (stereo not given) 79.4 µM [inhibitor, partial curve]
O=c1c2ccccc2sc2ccc(NCCCN3CCOCC3)cc12 56.2 µM [inhibitor, partial curve]
Cc1cc2c(sc3ccccc32)c(C)n1 89.1 µM [inhibitor, single point]
